From PubChem BioAssay AID1508642 (National Center for Advancing Translational Sciences (NCATS), 2021)
Hit rate of the full screen: of about 43,000 compounds, about 200 (0.47%) were called active. Not shown: some 12% with an inconclusive outcome. Calls come from the whole dose curve; as a rule, active = well fitted cell-killing curve with a large enough effect; inconclusive = small, poorly fitted or top-dose-only effect, or effect the other way; inactive = flat fitted curve, though single readings scatter. The list shows a part of the results.

Assay: Cell viability qHTS assay in S16 Pmp22-F2sN cells; note: nearly all actives have a fitted effect of over 65% in size
Details: S16 Pmp22-F2sN Schwann cells viability, CellTiter-Glo, 24 h; series mostly up to 57.5 µM; activity change, negative = cytotoxicity: at the top concentration
Method in brief: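 Used to flag compounds lowering reporter output through toxicity, this quantitative HTS measures ATP-based CellTiter-Glo luminescence in S16 Pmp22-F2sN Schwann cells after 24 h compound exposure at 37C.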
% is set by controls: 0 for no effect and ±100 for the full control effect; potency is the fitted concentration of half-maximal effect.

| Compound | activity change, negative = cytotoxicity | Potency |
| --- | --- | --- |
| CCOC(=O)N1CCC(NC(=O)c2cnn(-c3ccc(F)cc3F)c2C2CCN(C(=O)OC(C)(C)C)CC2)CC1 | inactive: -7.29% | – |
| Cc1ccccc1NC(=O)c1ccc2c(O)c(S(=O)(=O)c3ccccc3)c(=O)[nH]c2c1 | inactive: 1.93% | – |
| CNc1ccc(-c2nc(-c3ccco3)no2)cc1[N+](=O)[O-] | inactive: -0.27% | – |
| O=C(C1CCCN(S(=O)(=O)c2ccc(Br)s2)C1)N1CCN(c2cccc(Cl)c2)CC1 (centres undefined) | inactive: -0.214% | – |
| Cc1cccc(N2CCN(S(=O)(=O)c3ccc(-c4cc(C(F)(F)F)on4)s3)CC2)c1C | inactive: 2.66% | – |
| Cc1ccccc1OCC(=O)Nc1ccc2nc(SCC(=O)N3CCc4ccccc43)sc2c1 | inactive: 21.2% | – |
| COc1ccc2c(c1)c1c(c(=O)n(-c3ccc(C)cc3)c(=O)n1CC(=O)NCc1ccc(C)cc1)n2C | inactive: 12.2% | – |
| COc1ccc(Cl)cc1NC(=O)c1nnn(Cc2cccc(C(F)(F)F)c2)c1N | inactive: 5.18% | – |
| COc1ccc(OCC(=O)Nc2cc(-c3nc4ccccc4s3)ccc2C)cc1 | inactive: 11.7% | – |
| COc1cccc(C2C(C(=O)Nc3ccc(Cl)cc3)=C(C)Nc3nc4ccccc4n32)c1 (centres undefined) | inactive: 10.9% | – |
| CCC(C)Sc1oc(-c2ccco2)nc1S(=O)(=O)c1ccc(C)cc1 (centres undefined) | inactive: -2.66% | – |
| COc1cccc(CC(=O)Nc2ccc(-c3nc4ccccc4s3)cc2)c1 | inactive: 33.5% | – |
| Cc1ccc(CNc2ncnc3c2cnn3-c2ccc(Cl)cc2)cc1 | inactive: 4.49% | – |
| COc1ccccc1C1Nc2c(sc3nc(C)cc(C)c23)C(=O)N1c1ccccc1 (centres undefined) | inactive: -4.59% | – |
| CCc1ccccc1Nc1nn2c(=O)c3ccc(C(=O)NC(C)c4ccccc4)cc3nc2s1 (centres undefined) | inactive: -26.1% | – |
| COc1cc2[nH]c(=O)n(CCCC(=O)NCc3ccc(Cl)cc3)c(=O)c2cc1OC | inactive: -5.71% | – |
| Cc1ccc(NC(=O)C(=O)NCC(c2cccnc2)N2CCN(c3ccccc3F)CC2)cc1Cl (centres undefined) | inactive: -32.6% | – |
| COc1ccccc1NC(=O)c1sc2nc(C)c(C(=O)Nc3ccc(C)cc3C)c(-c3cccs3)c2c1N | inactive: 4.72% | – |
| CCOC(=O)c1c(C)[nH]c(CCC(=O)NCc2ccc(F)cc2)c1C | inactive: 9.53% | – |
| CC(C)(C)C1CCc2c(sc3nc(-c4cc5cc(Br)ccc5oc4=O)[nH]c(=O)c23)C1 (centres undefined) | inactive: 9.2% | – |

| Compound | activity change, negative = cytotoxicity | Potency |
| --- | --- | --- |
| CC(=O)Nc1ccc(NC(=O)c2cc3sccc3n2Cc2ccc(F)cc2)cc1 | inactive: 13.5% | – |
| CCOc1cc2[nH]c(=O)n(CCCCC(=O)N3CCN(c4cccc(Cl)c4)CC3)c(=O)c2cc1OCC | inactive: -19.4% | – |
| CCc1ccc(CN2CCc3nc(Nc4ccccc4)ncc3C2)cc1 | inactive: -17.2% | – |
| COC(=O)c1ccc(NC(=O)CN2C(=O)CCc3cc(S(=O)(=O)N4CCCCC4)ccc32)cc1 | inactive: 0.813% | – |
| N#Cc1ccccc1Cn1c(=O)n(-c2cccc(C(F)(F)F)c2)c(=O)c2sccc21 | inactive: 18.3% | – |
| COc1ccc(S(=O)(=O)NCC(c2ccco2)N2CCN(c3ccccc3)CC2)cc1OC (centres undefined) | inactive: 3.06% | – |
| Cc1[nH]c(=O)[nH]c(=O)c1S(=O)(=O)N1CCN(c2ccccc2Cl)CC1 | inactive: 3.85% | – |
| O=C(O)CCn1c(=O)c2cccn2c2cccnc21 | inactive: 6.67% | – |
| O=C(NC1CCCCC1)c1ccc(CSc2nc3cccnc3n2Cc2ccc(F)cc2)cc1 | inactive: -0.167% | – |
| CCOC(=O)c1c(S(=O)(=O)N2CCCC(C(=O)Nc3cc(C)ccn3)C2)c(C)n(C)c1C (centres undefined) | inactive: 5.69% | – |
| COc1ccc(OC)c(NC(=O)C2CCN(S(=O)(=O)c3ccc4c(c3)CCCC(=O)N4)CC2)c1 | inactive: 22.9% | – |
| CCOC(=O)c1ccc(NC(=O)CCC(=O)N2Cc3ccccc3Oc3ncccc32)cc1 | inactive: -4.56% | – |
| Cc1cc(C)nc(NC(=NCCc2c[nH]c3ccc(Cl)cc23)NC(=O)c2ccccc2C)n1 | inactive: 8.81% | – |
| COC(=O)C1=C(C)NC(=O)C1(NC(=O)c1cc(OC)c(OC)c(OC)c1)C(F)(F)F (centres undefined) | inactive: 12.1% | – |
| Cc1cccc(-n2cc(-c3ccccc3)c3c(NC4CCCC4)ncnc32)c1 | inactive: -7.6% | – |
| COCCNc1ccc(-c2nc(-c3ccco3)no2)cc1[N+](=O)[O-] | inactive: 16.7% | – |
| O=C(CN1C(=O)COc2ccc(S(=O)(=O)N3CCCC3)cc21)N1CCN(c2ccc(F)cc2)CC1 | inactive: -0.752% | – |
| Cc1cccc(-n2c(Cc3ccccc3)nnc2SCc2nc(-c3cccs3)no2)c1 | inactive: -22.9% | – |
| O=C1c2[nH]nc(-c3ccccc3O)c2C(c2ccccc2F)N1Cc1cccnc1 (centres undefined) | inactive: 7.99% | – |
| COc1ccc(-c2noc(N(c3cccc(Cl)c3)c3nc(-c4ccc(OC)c(OC)c4)no3)n2)cc1OC | inactive: 0.14% | – |

| Compound | activity change, negative = cytotoxicity | Potency |
| --- | --- | --- |
| CCOc1cccc(C(=O)N2CCC(c3nc4ccccc4s3)CC2)c1 | inactive: 10.3% | – |
| O=C(c1ccc(Br)cc1)N1CCN(CCc2ccncc2)CC1 | inactive: -14.7% | – |
| COCCCNC(=O)c1cnc2c(-c3ccc(F)cc3)c(C)nn2c1C | inactive: -10.2% | – |
| CCOC(=O)C1CCN(C(c2cccc(F)c2)c2c(O)cc(C)n(Cc3ccco3)c2=O)CC1 (centres undefined) | inactive: 15% | – |
| Cc1ccc(S(=O)(=O)Cc2ccc(C(=O)NCCc3ccc(Cl)cc3)o2)cc1 | inactive: -8.87% | – |
| CCOc1ccc(-c2nc(SCC(=O)c3ccccc3)n[nH]2)cc1 | inactive: 0.248% | – |
| CN(C)c1ccc(CNC(=O)c2cnc3sc(N4CCOCC4)nn3c2=O)cc1 | inactive: -0.176% | – |
| CCN(CC)CCCNC(=O)Cc1ccc(NC(=O)N2CCCCc3ccccc32)cc1 | inactive: 23.5% | – |
| O=c1oc2ccccc2cc1-c1nnc(Nc2ccc(Cl)cc2Cl)s1 | inactive: 8.25% | – |
| CCC1Oc2ccc(C)cc2N(CC(=O)NCc2ccc(OC)cc2)C1=O (centres undefined) | inactive: 20.5% | – |
| COc1cc(OC)c(NC(=O)C2CCN(C(=O)c3sc4nc[nH]c(=O)c4c3C)CC2)cc1Cl | inactive: 2.19% | – |
| CC(C)Oc1ccc(CNC(=O)C2CCN(c3nc4ccccc4nc3C(F)(F)F)CC2)cc1 | – | active: 7.94 µM |
| Cc1ccc(-c2nc3cc(Cl)ccc3o2)cc1NC(=O)c1cc([N+](=O)[O-])ccc1N1CCOCC1 | inactive: 0.322% | – |
| CC(=O)NC1CC(=O)N(c2ccc3c(c2)OCCO3)C1 (centres undefined) | inactive: -9.26% | – |
| Cc1nc(-c2ccccc2)sc1-c1ccc(SCC(=O)Nc2cccc(C(F)(F)F)c2)nn1 | inactive: -2.99% | – |
| CCC(=O)N1CCc2cc(Br)cc(S(=O)(=O)N3CCC(C(=O)Nc4ccccc4CC)CC3)c21 | inactive: 2.54% | – |
| COc1ccc(CC(=O)NC2CC(=O)N(c3cccc(F)c3)C2)cc1OC (centres undefined) | inactive: 10.4% | – |
| CCc1nn(CCCC(=O)N2CCN(c3cc(Cl)ccc3C)CC2)c(=O)c2cc3occc3n12 | inactive: -16% | – |
| COc1ccccc1Nc1sc(C(=O)c2ccc3c(c2)OCO3)c(N)c1S(=O)(=O)c1ccccc1 | inactive: 11.4% | – |
